# Where “and” joins values, the source holds several entries; their conditions need not be identical. Equal entries are not always repeated. The campaign covered roughly 150,000 compounds. About 6,500 (4.3%) were called active. The shares of active, inactive and inconclusive entries below differ from those in the screen. Calls follow the shape of the dose curve; as a rule, active = well fitted inhibition curve with a large enough effect (not every such curve was filed as active); inconclusive = small, poorly fitted or top-dose-only effect, or another doubt; inactive = no such curve, though single readings can be large or run the other way. Potencies of inconclusive entries are doubtful fits and often do not repeat. The source holds several records for some structures; these can differ, active in one and inactive in another.
# Target: 15-hydroxyprostaglandin dehydrogenase [NAD(+)] (Homo sapiens) (UniProt P15428)
# Assay: qHTS Assay for Inhibitors of HPGD (15-Hydroxyprostaglandin Dehydrogenase)
# Conditions: purified HPGD, NADH fluorescence kinetic, PGE2 substrate; activity change, negative = inhibition: active compounds read low
# Method in brief: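 20 nM HPGD preincubated 15 min at room temperature with compound in 50 mM Tris-HCl pH 8, 0.01% Tween 20. Started with 1 mM NAD+ and 30 uM prostaglandin E2; NADH fluorescence (360/450 nm) read 5 times over 30-s intervals, last minus first.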
# % is scaled to controls: 0 for no effect and ±100 for the full control effect; potency is read from the fitted curve at half-maximal effect; tags tell the direction and shape of the fitted curve.
# Sequence of UniProt P15428 (P15428 whole entry, looked up): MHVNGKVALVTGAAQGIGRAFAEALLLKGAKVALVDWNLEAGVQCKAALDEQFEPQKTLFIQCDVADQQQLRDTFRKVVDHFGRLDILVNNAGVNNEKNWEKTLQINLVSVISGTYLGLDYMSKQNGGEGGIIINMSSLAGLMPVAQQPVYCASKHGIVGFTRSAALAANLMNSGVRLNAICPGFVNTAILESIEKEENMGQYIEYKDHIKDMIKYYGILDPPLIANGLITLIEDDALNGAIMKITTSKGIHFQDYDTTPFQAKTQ
Compound,Potency,"activity change, negative = inhibition"
Nc1ccc(-c2nc3ccc(-c4nc5ccc(N)cc5[nH]4)cc3[nH]2)cc1,"inconclusive: 15.8 µM [inhibitor, partial curve] and inconclusive: 28.2 µM [inhibitor, partial curve]",
CCOc1ccc2nc(-c3ccccc3)[nH]c2c1,"inconclusive: 25.1 µM [inhibitor, partial curve]",
CC(C)OC(=O)c1ccc(Cn2nnc3ccccc3c2=O)cc1,"inconclusive: 28.2 µM [inhibitor, partial curve]",
COc1ccc(C(=O)Nc2ccc(Cl)cc2C(=O)NCc2ccco2)cc1OC,"inconclusive: 31.6 µM [inhibitor, partial curve]",
COc1cc2c(cc1NC(=O)C(C)NCc1ccccc1)oc1ccccc12 (configuration not stated),"inconclusive: 25.1 µM [inhibitor, partial curve]",
Cc1cc(C)c(C#N)c(SCC(=O)OC2CCCCC2)n1,active: 15.8 µM,
O=C1N=c2ccccc2=C1c1c(O)n(-c2cccc(F)c2)[nH]c1=O,active: 5.62 µM,
CC(C)NC(=O)NC(=O)CSc1nnc(COc2ccccc2Cl)o1,,inactive: -5.08%
CCCCCOC(=O)CSc1nc2c(c(=O)[nH]c(=O)n2C)n1CCc1ccccc1,active: 25.1 µM,
CCOC(=O)C1=C(C)NC2=C(C(=O)CCC2)C1c1cccnc1 (configuration not stated),"inconclusive: 31.6 µM [inhibitor, partial curve]",
O=C(CSCc1ccc(Cl)cc1)N1CCCCC1,active: 15.8 µM,
Cc1nc2c(-c3ccc(F)cc3)c(C)nn2c(C)c1CCC(=O)N1CCC(Cc2ccccc2)CC1,"inconclusive: 28.2 µM [inhibitor, partial curve]",
CC12CC(NC(=O)N1c1cccc(C(=O)N3CCN(c4ccccc4F)CC3)c1)c1ccccc1O2 (configuration not stated),,inactive: -11.2%
CC1=NCC(C)c2c1[nH]c1ccccc21 (configuration not stated),,inactive: -14.5%
CC(Oc1ccccc1Cl)C(=O)N1CCOCC1 (configuration not stated),active: 28.2 µM,
O=C(c1csnn1)N1CCC[C@@]2(CCN(Cc3ccccc3)C2)C1,,inactive: 2.55%
NC(=O)N/N=C/c1c(F)cccc1F,,inactive: -7%
CCCCCCn1c(=O)[nH]c2nc3cc(N)c(C)cc3nc2c1=O,"inconclusive: 7.94 µM [inhibitor, partial curve]",
O=C(Nc1nnc(SCC(=O)N2CCCc3ccccc32)s1)c1cccc2ccccc12,"inconclusive: 31.6 µM [inhibitor, partial curve]",
CCCCC1C(C#N)=C(C)NC2=C1C(=O)CC(C)(C)C2 (configuration not stated),"inconclusive: 31.6 µM [inhibitor, partial curve]",
COc1ccccc1NC(=O)C1=C(C)N(c2ccccc2)C(=S)NC1c1cccc(C(F)(F)F)c1 (configuration not stated),"inconclusive: 31.6 µM [inhibitor, partial curve]",
O=C(NCCN1CCCCC1)c1ccc(=O)oc1,"inconclusive: 28.2 µM [inhibitor, partial curve]",
CC(=O)C1=C(O)CC(c2ccccc2)CC1=NCCc1c(C)[nH]c2ccc(C)cc12 (configuration not stated),,inactive: -23.4%
Clc1ccc(-c2cn3cccnc3n2)cc1Cl,"inconclusive: 28.2 µM [inhibitor, partial curve]",

Compound,Potency,"activity change, negative = inhibition"
CCOc1cc2[nH]c(=O)n(Cc3ccc(C(=O)NCCOC)cc3)c(=O)c2cc1OCC,"inconclusive: 39.8 µM [inhibitor, partial curve]",
COc1ccc(C(=O)Nc2cccc(C(C)=O)c2)c(OC)c1OC,,inactive: -7.78%
CC1(C)CC(=O)C2=C(C1)N=C1SCCC(=O)N1C2c1ccccc1 (configuration not stated),,inactive: -14.4%
Cc1cc(C(=O)CSc2nc3ccc(Cl)cc3[nH]2)c(C)n1C,"inconclusive: 25.1 µM [inhibitor, partial curve]",
Cc1oc(-c2ccccc2)cc1C(=O)Nc1ccc2ccccc2c1,"inconclusive: 35.5 µM [inhibitor, partial curve]",
N#CCCN1CCN(CCC#N)CC1,,inactive: -3.21%
COC(=O)c1cc2c(s1)CS(=O)C2 (configuration not stated),"inconclusive: 10 µM [inhibitor, partial curve]",
COc1cc(/C=N/N=C2/C(=O)Nc3ccccc32)cc(OC)c1O,"inconclusive: 35.5 µM [inhibitor, single point]",
COc1cc(OC)cc(C(=O)NCc2n[nH]c(=S)n2-c2ccccc2OC)c1,"inconclusive: 14.1 µM [inhibitor, partial curve, poor fit]",
COc1ccc(S(=O)(=O)N(C)c2ccc(C(=O)N3CCOCC3)cc2)cc1OC,"inconclusive: 17.8 µM [inhibitor, partial curve]",
Brc1[nH]nc2ccccc12,,inactive: -16%
C/C(=N\O)c1ccc2c3c([nH]c2c1)CCCC3,"inconclusive: 22.4 µM [inhibitor, partial curve]",
Cc1cc2ccccc2c(=O)n1CC(=O)Nc1ccc2c(c1)OCCO2,,inactive: -10.5%
C/C(=C(\C#N)C(=O)NC1CCCCC1)N(C)C,active: 15.8 µM,
Cc1nn(-c2ccc(Cl)cc2)c2sc(C(=O)c3c(N)n(C)c(=O)n(C)c3=O)cc12,"inconclusive: 17.8 µM [inhibitor, partial curve, poor fit]",
O=c1ccc2ccc(O)c(O)c2o1,"inconclusive: 14.1 µM [inhibitor, partial curve]",
O=C1C=CC(=O)C(C2=C3C(=O)N(CCc4ccccc4)CC(=O)N3CCC2)=C1,active: 1.58 µM,
N#Cc1cnc2ncnn2c1-c1ccccc1,,inactive: -7.99%
Cc1cc(=O)oc2cc(OCC(O)CN3CCN(c4ccccc4)CC3)ccc12 (configuration not stated),"inconclusive: 28.2 µM [inhibitor, partial curve]",
Cc1cccc(CNc2cc(-c3cccc(NS(C)(=O)=O)c3)ncn2)c1,"inconclusive: 17.8 µM [inhibitor, partial curve]",
N#Cc1cc(C(=O)c2cc(F)ccc2O)cn(-c2nccs2)c1=O,active: 11.2 µM,
O=C(Nc1cccnc1)c1cccs1,,inactive: -12.6%
Cc1ccc2nc(-c3ccco3)c(Nc3ccccc3)n2c1,"inconclusive: 7.94 µM [inhibitor, full curve]",
CCN(CC)c1ccc(/C=N/NC(=O)OC)c(O)c1,"inconclusive: 15.8 µM [inhibitor, partial curve]",

Compound,Potency,"activity change, negative = inhibition"
O=C1c2ccccc2S(=O)(=O)N1CC(O)COc1ccc(Br)cc1 (configuration not stated),"inconclusive: 22.4 µM [inhibitor, partial curve]",
Cc1ccc(C(=O)O/N=C/c2c(N3CCOCC3)n(C)c3ccccc23)cc1,"inconclusive: 39.8 µM [inhibitor, single point]",
COc1cc(CCN2C(=O)N[C@@H](c3ccccc3)C(C(C)=O)=C2C)cc(OC)c1OC,,inactive: -6.97%
COc1ccc(-c2cc(C(F)(F)F)nc(NCc3cccs3)n2)cc1,"inconclusive: 31.6 µM [inhibitor, single point]",
Cc1ccc2[nH]c(=O)c(-c3noc(C(C)C)n3)cc2c1,"inconclusive: 31.6 µM [inhibitor, partial curve]",
CCN(CC)C(=O)COC(=O)c1cc(-c2ccc(OC)cc2)nc2ccccc12,"inconclusive: 31.6 µM [inhibitor, partial curve]",
Cc1cc(C)n2nc(SCC(=O)N(C(C)C)C(C)C)nc2n1,"inconclusive: 31.6 µM [inhibitor, partial curve]",
C=CCn1c(C)cc(C(=O)CSc2nc3ccccc3c(=O)[nH]2)c1C,active: 2.82 µM,
Oc1ccccc1-c1nc(/C=C/c2ccccc2)nn1-c1ccccc1,"inconclusive: 20 µM [inhibitor, partial curve]",
Cc1ccc(OCCNc2cc(N3CCN(CCO)CC3)ccc2[N+](=O)[O-])cc1C,active: 35.5 µM,
CC(=O)NCCc1c[nH]c2ccc(O)cc12,active: 11.2 µM,
COc1ccc(/C=N/OCC(=O)NC(c2ccccc2)c2ccccc2)c(OC)c1,"inconclusive: 39.8 µM [inhibitor, single point]",
O=C(NCc1cccs1)c1csc2c1CCCCC2,active: 22.4 µM,
O=C1NC(=Nc2ccccc2)/C(=C/c2ccco2)S1,,inactive: -14.1%
O=C(CN1CCOc2ccccc21)NCc1ccc(F)cc1,"inconclusive: 3.16 µM [inhibitor, single point]",
CCCOc1ccc(N2C(=O)CC(NNC(=O)c3ccc(COc4ccccc4)o3)C2=O)cc1 (configuration not stated),,inactive: -15%
O=C(NCc1cccs1)c1nn2cccnc2c1Cl,"inconclusive: 31.6 µM [inhibitor, partial curve, poor fit]",
C/C(N)=C(/C#N)C(=O)COC(=O)c1cccc2ccccc12,"inconclusive: 31.6 µM [inhibitor, partial curve]",
N#C/C(=N\O)c1nc(-c2ccccc2)cs1,,inactive: -11.5% and inactive: -26%
O=C(c1ccccc1)N1CCC(c2nc3c(nnn3Cc3ccccc3Cl)c(=O)[nH]2)CC1,active: 11.2 µM,
O=C(NC(Cc1ccccc1)C(=O)Oc1ccc2c(C(F)(F)F)cc(=O)oc2c1)OCc1ccccc1 (configuration not stated),"inconclusive: 35.5 µM [inhibitor, single point]",
c1ccc(CCc2nn3c(Cn4nnc5ccccc54)nnc3s2)cc1,active: 10 µM,
Cn1c(=O)cc(OCC(=O)N2CCCc3ccccc32)c2ccccc21,"inconclusive: 28.2 µM [inhibitor, partial curve]",
CCOc1ccc(-c2nnc(-c3ccccc3)n2-c2ccccc2)cc1,"inconclusive: 39.8 µM [inhibitor, partial curve]",

# Source: PubChem BioAssay AID894 (National Center for Advancing Translational Sciences (NCATS), 2007)
